Results from the supplement of paper PMC11417369.
± gives the standard deviation of the averaged measurements. The list shows a part of the results.

These sequences were tested on PfAP2-EXP AP2 domain (GST-tagged) (assay: gcPBM binding intensity (ln(normalized median fluorescence intensity)); higher = stronger DNA binding).
Method in brief: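 An Agilent 4 × 180k array carrying primer-extended double-stranded 36-bp intergenic genomic probes and negative controls received GST-tagged P. falciparum DNA-binding domains expressed in E. coli, about 25 μg on average, for 1 h. The binding buffer contained 1× PBS, 1% milk, 0.2 mg/ml BSA, 0.5% salmon testes DNA and 0.03% Triton X-100. Binding intensity is the top Masliner-normalised natural-log median intensity across replicate spots of either probe orientation, read after Alexa488 anti-GST antibody staining and a 488 nm scan.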

Sequence | gcPBM binding intensity (ln)
AAAAAACAATCTCATACACACTAGGGATTAATTATT [CACACA_site5051] | 8.41 ± 0.36
TATAGAAGCGTTCACACACACACATACATACCCATA [CACACA_site4915] | 8.78 ± 0.39
TGTAGTCTGGAGAAAAGTACATAGTATCTGATAACC [XGTACX_site2018] | 8.77 ± 0.47
GTGCATATATGATATACACACAATATAATAGTATGT [CACACA_site2460] | 8.46 ± 0.27
AATATAATGTAATATACACACATATATTTCTCTTTT [CACACA_site5451] | 8.24 ± 0.39
AAGAGTTTGAAGTTTGCACACTACGTTAAAAATAAA [CACACA_site3939] | 8.37 ± 0.4
AAAAATTTATTTTTAGGTACACAATTGAATTATTTA [XGTACX_site7008] | 8.16 ± 0.27
CCACATTTTACAGACACACACAATTTATATTACGGT [CACACA_site1894] | 8.56 ± 0.51
ATATATTTAAATAAAAGTACGTAAAGGTATATTTAA [XGTACX_site8088] | 8.79 ± 0.4
ATAATAAAAAAAAAATGTACATAAATCTAAAATCCT [XGTACX_site5823] | 8.58 ± 0.44
TGAAGAAAATATTAATGTACATATTATATATATATA [XGTACX_site5497] | 9.73 ± 0.19
CCTCCCATTTTTACACGTACACATTTAAAATAGACT [XGTACX_site5640] | 9.11 ± 0.56
AATACAATTTATAACACACACACAATAATACATATA [CACACA_site1252] | 8.83 ± 0.42
GTATTTTTTTTAATATGTACATATAAAATATTTTAT [XGTACX_site8329] | 8.96 ± 0.31
ATATAAGTTTATATATGTACATATATATATTATATA [XGTACX_site2068] | 8.4 ± 0.26
AATTCATTTAAAAGTTGTACAAGCTTAATAAAAAAA [XGTACX_site6073] | 8.54 ± 0.43
ATATACACATAAAGTAGTACACCTGAAATTTTTTTT [XGTACX_site2951] | 8.52 ± 0.21
GAGGATATATTATATGTACACACATATATAACGGAT [CACACA_site8361] | 8.8 ± 0.33
CCCATGCATTTTTGCACACACATATATATATAAATA [CACACA_site1430] | 8.95 ± 0.23
AATTAAAAATATAAATGTACATATATGTAAAACTTT [XGTACX_site123] | 8.7 ± 0.53
TTAATCATAAAAGTCACACATAATAAGAAAAAGCTT [CACACA_site4616] | 8.62 ± 0.54
AATATATGAATTAGAAGTACAAATAAATATTTATTT [XGTACX_site2062] | 8.54 ± 0.36

Sequence | gcPBM binding intensity (ln)
GTTTGTATAGGTTCATGTACAAAAAAAAAAAAAAAA [XGTACX_site537] | 8.32 ± 0.41
TTTAAAACCCTAAAAAAAAAAAAAAAAAAAAAAAAA [CACACA_negctrl_site1212] | 7.96 ± 0.33
ATGCATAAAAGAAATACACACATAAATATGTAAATA [CACACA_site7087] | 8.52 ± 0.59
TTAAAACATATTTTGAATTAATATATTTTAATATTA [XGTACX_negctrl_site148] | 7.72 ± 0.39
TAGCGTACATTTCATTGTAATCATAAAAAATAAAGA [CACACA_negctrl_site447] | 8.56 ± 0.49
ATTCATATGTGACACACACACACACGCATAAAAAAA [CACACA_site7515] | 8.73 ± 0.51
TTTATTAGAACCGTACGTACATAGTTATTTTTTCAA [XGTACX_site8848] | 8.44 ± 0.32
ACAAAAATATATATATGTACATATATCATCATAATA [XGTACX_site5850] | 8.48 ± 0.42
TATATATATATATGGGTGCATTTTTTTGTCCATGTA [GTGCAC_site9868] | 10.1 ± 0.2
ATAAAATAAATGAAAAATGTAAAATGAGAAAAAAAT [CACACA_negctrl_site1026] | 9.1 ± 0.42
TATGCTATAATACTCTGTACTTACTAATTTAATAAT [XGTACX_site5926] | 8.38 ± 0.59
TACATATTTTTTATATGTACATATTTTTTATGTGTA [XGTACX_site442] | 8.51 ± 0.38
TAATAAACAAATTCCAAAATAAATTAAAAGGAAAAT [CACACA_negctrl_site1404] | 8.47 ± 0.35
AGGTATATATTACAAGTGCACTGTAAAATTAAAATT | 8.77 ± 0.15
TTTTATCTCATTCATCAAAATCACCGGAATCATATA [CACACA_negctrl_site357] | 8.61 ± 0.3
ATTTTATCATAATAAAGTACAAAGATGCAAATAATA [XGTACX_site2270] | 9.06 ± 0.38
ATTTATTTATATTTAGTGCAATACTATTTTTAAATA [GTGCAC_site9886] | 8.47
GTAATGTCGTCGTTTTGTACATATTTTTATAAAAAG [XGTACX_site2688] | 9.06 ± 0.45
TATTATAAATTAATTTTAAACTTTATTATTATGATA [GTGCAC_negctrl_site389] | 8.03 ± 0.41
TTAAAATTATATCTGTGTACATAAATTGTGTAACTA [XGTACX_site1966] | 8.35 ± 0.28
AAAAAAAAAAAGAACTCACACATAATAATGTATATG [CACACA_site4974] | 8.2 ± 0.59
AAAGGAGACAGAATAAGAATAAATATTATACATATA [XGTACX_negctrl_site412] | 8.46 ± 0.45

Sequence | gcPBM binding intensity (ln)
TATTAGTCGAATGATGTACACACATACAAAACATTT [CACACA_site9331] | 8.61 ± 0.35
ATTTAAAAAAAAATGGCACACATTTTAATTTTATGT [CACACA_site1740] | 8.16 ± 0.31
TTGTGTCATATATTTTGTAATCAAAATAATTTTATT [TGCATGCA_negctrl_site307] | 8.15 ± 0.042
TTTTTGTTTCGTTACGCATGCCAAAAGTAAAAATAT [TGCATGCA_site536] | 9.59 ± 0.3
TTTTTAATGATCAGACGTACAGTTATGAAGAAATTT [XGTACX_site6394] | 8.86 ± 0.31
ATAATGTTCCTATGATGTACTTATAATTATCATTTT [XGTACX_site4017] | 8.73 ± 0.45
AAGAGGTTATTACATTCACATAACATCAATATACGT [GTGCAC_negctrl_site264] | 8.51 ± 0.49
TATTGTTCGTTTAAGGTGCTATTGTTTGCAAAATAT [GTGCAC_site9412] | 8.95 ± 0.45
ATTAAAATAATATAAACACACATATACTTTTTTCTA [CACACA_site565] | 8.19 ± 0.36
TGGGAAAACCCCAGAAGTACGCTTAATATAAAAAAT [XGTACX_site697] | 8.54 ± 0.48
CTATTATTTTTAAATTGTACTATAACAAAATGTATA [XGTACX_site3916] | 8.23 ± 0.3
TTTATATTTATATAAATATAATATATATGAATTATA [XGTACX_negctrl_site466] | 8.19 ± 0.51
AAATAAATCTATAATACACACAAAAATATAAAATGC [CACACA_site7700] | 8.84 ± 0.49
ATATATATGTTTTATAGTACACACATAAATGGACAT [XGTACX_site4538] | 8.68 ± 0.4
ATAACTTGTATATATACACACACACCCTTTCTTTTT [CACACA_site8600] | 9.01 ± 0.5
TATATTATATTATACATACACACCCATATAATATGT [CACACA_site869] | 8.81 ± 0.45
TTAAGAAATAACAATGCACACATTTAGGTCTTTTAT [CACACA_site3285] | 8.44 ± 0.41
CTTCAATATATTCTTACACACTTAAAAAAAAAAATA [CACACA_site4287] | 8.27 ± 0.38
TTAGATATGTGTAAGGGTACAAAATACTTTACATTT [XGTACX_site8204] | 8.25 ± 0.37
AATAGGAAGACTATTTTGTATTTGATTTTTTATTCC [GTGCAC_negctrl_site453] | 8.45 ± 0.55
CATTCAATTGAAAAATGTACAAAAATAAACATATGC [XGTACX_site1663] | 9.05 ± 0.52
TAAGTATACGCATACACACACACACCCAAAAAAAAA [CACACA_site425] | 8.69 ± 0.65

Sequence | gcPBM binding intensity (ln)
GTTCCAGGCATTCGTGCGCACAAATAGAAACAATTA [GTGCAC_site9824] | 9.19 ± 0.22
ATAATATATGAGCAATGTACATATTTCTCATTGCAC [XGTACX_site2253] | 8.56 ± 0.38
TTTCTATATTGGCATACATGCAAGAACGAAAAGATT [TGCATGCA_site117] | 8.93 ± 0.35
TAAAAATTGCACAGAAGTACAGTATAAATATATATA [XGTACX_site3421] | 8.6 ± 0.31
TAAACATACCTATACACACACACACGCACACGCACA [CACACA_site6372] | 8.74 ± 0.46
GTTGAACATATATGCACACACATAAAATAAAAAAAA [CACACA_site2413] | 8.64 ± 0.39
TTGTGAAACATCAAGAAAAAGAAATAATAAAAAGAA [GTGCAC_negctrl_site38] | 8.87 ± 0.54
TTATATTAATATATATGTACATATATTTTTTTTATA [XGTACX_site6981] | 8.57 ± 0.42
ATACAACAATGTGAATTATATATGGATGGAGAATGA [GTGCAC_negctrl_site148] | 8.81 ± 0.52
TCTTTTTTTTTTTTTTTTTTTTTTTATTTATTCATA [CACACA_negctrl_site1827] | 8.29 ± 0.57
AAAAGGTATCCACATACGCACACCAAAAAAAAAAAT [CACACA_site347] | 8.37 ± 0.47
TTCTTAAGGAACGAACGTACAGAATAAAAAGTAAAA [XGTACX_site4294] | 8.79 ± 0.52
ACGTAAGCGAATAAAAGTACATATATTAAAAAAAAA [XGTACX_site4458] | 8.62 ± 0.43
AATAGAATGTAATATACACACATATATTTCTCTTTT [CACACA_site2630] | 8.15 ± 0.36
TATATATATATATATTGTACACATTGTGTTTAAATA [XGTACX_site5104] | 10 ± 0.43
TTGTAACCTATGCACGCACACAAGAAAAAAACAAAA [CACACA_site3775] | 8.64 ± 0.33
TTTTTATTGTTAATTTTAATTTTTTTTTTTTAATGC [CACACA_negctrl_site162] | 8.14 ± 0.42
TATTCCAAATTTACTAGTACATAATCCATCCGATAA [XGTACX_site1558] | 8.46 ± 0.46
TATTACACATATTATACACACATATATTATAGATAT [CACACA_site6839] | 8.54 ± 0.38
TTTCTTTTTAAATGCTGTACAAAGGGTGACGTTAAA [XGTACX_site4724] | 8.74 ± 0.42
TTTCCTTATAAAAATACACACAAACTTTAATTAAAA [CACACA_site7710] | 8.36 ± 0.41
ATAACTTTATTCAGTTTGCACTTTTATAACAAAAGA | 8.63 ± 0.16
